# Laboratory results reported in the supplement of paper PMC8728848.
# This is one part of the list.
# Legend:
# Experiment in all cases: glycan array binding signal (z-score within array); higher = stronger binding
# Settings in all cases: glycan notation: IUPAC condensed, linker removed
# [1] = molecular target: Fuc(a1-2)Gal(b1-4)[Fuc(a1-3)]GlcNAc
# Method in brief: (§1)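 Negative Z-scores can be read as non-binding. The Z-score is calculated within each array and then averaged across arrays of one protein sequence at different concentrations or buffers and across linkers. Arrays, 3228 in all, were curated from the Consortium for Functional Glycomics database and kept only where the protein sequence was available.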
# [2] = molecular target: Fuc(a1-2)Gal(b1-4)[Fuc(a1-3)]GlcNAc(b1-2)Man(a1-3)[Fuc(a1-2)Gal(b1-4)[Fuc(a1-3)]GlcNAc(b1-2)Man(a1-6)]Man(b1-4)GlcNAc(b1-4)[Fuc(a1-6)]GlcNAc
# Method in brief: as §1
# [3] = molecular target: Fuc(a1-2)Gal(b1-4)[Fuc(a1-3)]GlcNAc(b1-2)[Fuc(a1-2)Gal(b1-4)[Fuc(a1-3)]GlcNAc(b1-4)]Man(a1-3)[Fuc(a1-2)Gal(b1-4)[Fuc(a1-3)]GlcNAc(b1-2)Man(a1-6)]Man(b1-4)GlcNAc(b1-4)GlcNAc
# Method in brief: as §1
# [4] = molecular target: Fuc(a1-2)Gal(b1-4)[Fuc(a1-3)]GlcNAc(b1-3)Gal(b1-4)[Fuc(a1-3)]GlcNAc
# Method in brief: as §1
# [5] = molecular target: Fuc(a1-2)Gal(b1-4)[Fuc(a1-3)]GlcNAc(b1-3)Gal(b1-4)[Fuc(a1-3)]GlcNAc(b1-3)Gal(b1-4)[Fuc(a1-3)]GlcNAc
# Method in brief: as §1
# [6] = molecular target: Fuc(a1-2)Gal(b1-4)[Fuc(a1-3)]GlcNAc(b1-3)GalNAc
# Method in brief: as §1
# [7] = molecular target: Fuc(a1-2)Gal(b1-4)[Fuc(a1-3)]GlcNAc(b1-3)[Neu5Ac(a2-6)Gal(b1-4)GlcNAc(b1-6)]Gal(b1-4)Glc
# Method in brief: as §1
# [8] = molecular target: Fuc(a1-2)Gal3S(b1-4)GlcNAc
# Method in brief: as §1
# [9] = molecular target: Fuc(a1-2)Gal6S(b1-3)GlcNAc
# Method in brief: as §1
# [10] = molecular target: Fuc(a1-2)Gal6S(b1-3)GlcNAc6S
# Method in brief: as §1
# [11] = molecular target: Fuc(a1-2)Gal6S(b1-4)Glc
# Method in brief: as §1
# [12] = molecular target: Fuc(a1-2)Gal6S(b1-4)Glc6S
# Method in brief: as §1
# [13] = molecular target: Fuc(a1-2)[Gal(a1-3)]Gal
# Method in brief: as §1
# [14] = molecular target: Fuc(a1-2)[Gal(a1-3)]Gal(b1-3)GalNAc
# Method in brief: as §1
# [15] = molecular target: Fuc(a1-2)[Gal(a1-3)]Gal(b1-3)GalNAc(b1-3)Gal(a1-4)Gal(b1-4)Glc
# Method in brief: as §1
# [16] = molecular target: Fuc(a1-2)[Gal(a1-3)]Gal(b1-3)GlcNAc
# Method in brief: as §1
# [17] = molecular target: Fuc(a1-2)[Gal(a1-3)]Gal(b1-3)GlcNAc(b1-2)Man(a1-3)[Fuc(a1-2)[Gal(a1-3)]Gal(b1-3)GlcNAc(b1-2)Man(a1-6)]Man(b1-4)GlcNAc(b1-4)GlcNAc
# Method in brief: as §1
# [18] = molecular target: Fuc(a1-2)[Gal(a1-3)]Gal(b1-3)GlcNAc(b1-2)Man(a1-3)[Fuc(a1-2)[Gal(a1-3)]Gal(b1-3)GlcNAc(b1-2)Man(a1-6)]Man(b1-4)GlcNAc(b1-4)[Fuc(a1-6)]GlcNAc
# Method in brief: as §1
# [19] = molecular target: Fuc(a1-2)[Gal(a1-3)]Gal(b1-3)GlcNAc(b1-3)GalNAc
# Method in brief: as §1
# [20] = molecular target: Fuc(a1-2)[Gal(a1-3)]Gal(b1-3)GlcNAc(b1-6)GalNAc
# Method in brief: as §1
# [21] = molecular target: Fuc(a1-2)[Gal(a1-3)]Gal(b1-4)Glc
# Method in brief: as §1
# [22] = molecular target: Fuc(a1-2)[Gal(a1-3)]Gal(b1-4)GlcNAc
# Method in brief: as §1
# [23] = molecular target: Fuc(a1-2)[Gal(a1-3)]Gal(b1-4)GlcNAc(b1-2)Man
# Method in brief: as §1
# [24] = molecular target: Fuc(a1-2)[Gal(a1-3)]Gal(b1-4)GlcNAc(b1-2)Man(a1-3)[Fuc(a1-2)[Gal(a1-3)]Gal(b1-4)GlcNAc(b1-2)Man(a1-6)]Man(b1-4)GlcNAc(b1-4)GlcNAc
# Method in brief: as §1
# [25] = molecular target: Fuc(a1-2)[Gal(a1-3)]Gal(b1-4)GlcNAc(b1-2)Man(a1-3)[Fuc(a1-2)[Gal(a1-3)]Gal(b1-4)GlcNAc(b1-2)Man(a1-6)]Man(b1-4)GlcNAc(b1-4)[Fuc(a1-6)]GlcNAc
# Method in brief: as §1
# [26] = molecular target: Fuc(a1-2)[Gal(a1-3)]Gal(b1-4)GlcNAc(b1-3)GalNAc
# Method in brief: as §1
# [27] = molecular target: Fuc(a1-2)[Gal(a1-3)]Gal(b1-4)GlcNAc(b1-6)GalNAc
# Method in brief: as §1
# [28] = molecular target: Fuc(a1-2)[Gal(a1-3)]Gal(b1-4)[Fuc(a1-3)]Glc
# Method in brief: as §1
# [29] = molecular target: Fuc(a1-2)[Gal(a1-3)]Gal(b1-4)[Fuc(a1-3)]GlcNAc
# Method in brief: as §1
# [30] = molecular target: Fuc(a1-2)[Gal(a1-3)]Gal(b1-4)[Fuc(a1-3)]GlcNAc(b1-3)GalNAc
# Method in brief: as §1
# [31] = molecular target: Fuc(a1-2)[Gal(a1-4)]Gal(b1-4)GlcNAc
# Method in brief: as §1
# [32] = molecular target: Fuc(a1-2)[GalNAc(a1-3)]Gal
# Method in brief: as §1
# [33] = molecular target: Fuc(a1-2)[GalNAc(a1-3)]Gal(b1-3)GalNAc(a1-3)[Fuc(a1-2)]Gal(b1-4)GlcNAc
# Method in brief: as §1
# [34] = molecular target: Fuc(a1-2)[GalNAc(a1-3)]Gal(b1-3)GalNAc(b1-3)Gal(a1-4)Gal(b1-4)Glc
# Method in brief: as §1
# [35] = molecular target: Fuc(a1-2)[GalNAc(a1-3)]Gal(b1-3)GlcNAc
# Method in brief: as §1
# [36] = molecular target: Fuc(a1-2)[GalNAc(a1-3)]Gal(b1-3)GlcNAc(b1-2)Man(a1-3)[Fuc(a1-2)[GalNAc(a1-3)]Gal(b1-3)GlcNAc(b1-2)Man(a1-6)]Man(b1-4)GlcNAc(b1-4)GlcNAc
# Method in brief: as §1
# [37] = molecular target: Fuc(a1-2)[GalNAc(a1-3)]Gal(b1-3)GlcNAc(b1-2)Man(a1-3)[Fuc(a1-2)[GalNAc(a1-3)]Gal(b1-3)GlcNAc(b1-2)Man(a1-6)]Man(b1-4)GlcNAc(b1-4)[Fuc(a1-6)]GlcNAc
# Method in brief: as §1
# [38] = molecular target: Fuc(a1-2)[GalNAc(a1-3)]Gal(b1-3)GlcNAc(b1-3)GalNAc
# Method in brief: as §1
binder,measurement,setting,value
"CLECb-Precomplexed (Mus musculus), P43025 (protein) MAKNGLVLCILVVSLLLDQTDGYPSRMKARKHSKRRVKAKDDDLKSQVEKLWREVNALKEMQALQTVCLRGTKVHKKCYLASEGLKHYHEANEDCISKGGTLVVPRNSDEINALRDYGKRSLPGVNDFWLGINDMVTEGKFLDVHGFAVSFLNWDRAQPSGGKRENCVLFSQSAQGKWSDEACRSSKRYICEFIIPTRTRPLEQKLISEEDLAANDILDYKDDDDKV",glycan array binding signal (z-score),[1],-0.344
same,glycan array binding signal (z-score),[2],0.232
same,glycan array binding signal (z-score),[3],0.036
same,glycan array binding signal (z-score),[4],-0.289
same,glycan array binding signal (z-score),[5],0.457
same,glycan array binding signal (z-score),[6],1.86
same,glycan array binding signal (z-score),[7],-0.551
same,glycan array binding signal (z-score),[8],-0.364
same,glycan array binding signal (z-score),[9],-0.377
same,glycan array binding signal (z-score),[10],-0.075
same,glycan array binding signal (z-score),[11],-0.293
same,glycan array binding signal (z-score),[12],-0.244
same,glycan array binding signal (z-score),[13],0.033
same,glycan array binding signal (z-score),[14],-0.326
same,glycan array binding signal (z-score),[15],0.033
same,glycan array binding signal (z-score),[16],-0.221
same,glycan array binding signal (z-score),[17],0.234
same,glycan array binding signal (z-score),[18],-0.064
same,glycan array binding signal (z-score),[19],0.218
same,glycan array binding signal (z-score),[20],-0.196
same,glycan array binding signal (z-score),[21],-0.054
same,glycan array binding signal (z-score),[22],-0.552
same,glycan array binding signal (z-score),[23],-0.194
same,glycan array binding signal (z-score),[24],0.668
same,glycan array binding signal (z-score),[25],0.104
same,glycan array binding signal (z-score),[26],0.038
same,glycan array binding signal (z-score),[27],-0.136
same,glycan array binding signal (z-score),[28],-0.343
same,glycan array binding signal (z-score),[29],-0.084
same,glycan array binding signal (z-score),[30],-0.337
same,glycan array binding signal (z-score),[31],-0.343
same,glycan array binding signal (z-score),[32],-0.098
same,glycan array binding signal (z-score),[33],-0.347
same,glycan array binding signal (z-score),[34],0.034
same,glycan array binding signal (z-score),[35],0.136
same,glycan array binding signal (z-score),[36],0.101
same,glycan array binding signal (z-score),[37],-0.311
same,glycan array binding signal (z-score),[38],-0.149
